Among the data in PMC9765265 are binding values, retold here.

The chains behind the UniProt entries cited, without tags or fusion partners.
UniProt P13164: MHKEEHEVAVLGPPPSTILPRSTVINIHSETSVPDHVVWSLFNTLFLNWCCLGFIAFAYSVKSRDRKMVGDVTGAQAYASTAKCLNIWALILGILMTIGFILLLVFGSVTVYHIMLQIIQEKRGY
UniProt Q01629: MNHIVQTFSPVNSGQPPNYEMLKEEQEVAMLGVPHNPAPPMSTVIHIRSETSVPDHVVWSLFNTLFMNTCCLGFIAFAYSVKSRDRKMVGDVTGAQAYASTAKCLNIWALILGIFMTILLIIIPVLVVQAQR
UniProt Q01628: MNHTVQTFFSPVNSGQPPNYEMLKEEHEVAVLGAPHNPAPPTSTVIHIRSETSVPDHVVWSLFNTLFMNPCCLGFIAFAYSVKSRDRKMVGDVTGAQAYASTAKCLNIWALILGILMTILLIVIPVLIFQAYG
UniProt Q9CQW9: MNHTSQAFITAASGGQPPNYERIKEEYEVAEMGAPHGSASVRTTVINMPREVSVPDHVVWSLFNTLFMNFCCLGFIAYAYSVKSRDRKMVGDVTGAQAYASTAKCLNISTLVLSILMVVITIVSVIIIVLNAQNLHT

For one test, the target named is T1, mABHD16A-VN (mouse) (UniProt Q9Z1Q2).
T1 sequence: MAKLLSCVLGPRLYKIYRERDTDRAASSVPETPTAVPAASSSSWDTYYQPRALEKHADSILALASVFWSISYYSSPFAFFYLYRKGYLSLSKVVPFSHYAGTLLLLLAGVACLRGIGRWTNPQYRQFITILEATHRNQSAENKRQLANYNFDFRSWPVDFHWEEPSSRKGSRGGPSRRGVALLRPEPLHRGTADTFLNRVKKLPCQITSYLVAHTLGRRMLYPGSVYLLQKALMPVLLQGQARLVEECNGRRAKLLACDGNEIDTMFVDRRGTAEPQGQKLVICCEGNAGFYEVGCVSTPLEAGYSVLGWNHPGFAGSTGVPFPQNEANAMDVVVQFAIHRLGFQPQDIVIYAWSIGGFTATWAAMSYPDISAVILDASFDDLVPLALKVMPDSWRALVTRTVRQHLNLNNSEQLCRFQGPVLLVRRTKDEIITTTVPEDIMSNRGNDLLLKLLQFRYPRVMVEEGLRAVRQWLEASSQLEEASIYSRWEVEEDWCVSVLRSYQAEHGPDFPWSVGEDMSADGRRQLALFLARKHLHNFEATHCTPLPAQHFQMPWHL
As to the kind of experiment: split reporter; BiFC in living HEK293 cells, 24 h after transfection with mABHD16A-VN + mIFITM1/2/3-VC; Venus signal.

The target in a further test is T2, S-tag-mABHD16A (mouse) (UniProt Q9Z1Q2).
T2 sequence: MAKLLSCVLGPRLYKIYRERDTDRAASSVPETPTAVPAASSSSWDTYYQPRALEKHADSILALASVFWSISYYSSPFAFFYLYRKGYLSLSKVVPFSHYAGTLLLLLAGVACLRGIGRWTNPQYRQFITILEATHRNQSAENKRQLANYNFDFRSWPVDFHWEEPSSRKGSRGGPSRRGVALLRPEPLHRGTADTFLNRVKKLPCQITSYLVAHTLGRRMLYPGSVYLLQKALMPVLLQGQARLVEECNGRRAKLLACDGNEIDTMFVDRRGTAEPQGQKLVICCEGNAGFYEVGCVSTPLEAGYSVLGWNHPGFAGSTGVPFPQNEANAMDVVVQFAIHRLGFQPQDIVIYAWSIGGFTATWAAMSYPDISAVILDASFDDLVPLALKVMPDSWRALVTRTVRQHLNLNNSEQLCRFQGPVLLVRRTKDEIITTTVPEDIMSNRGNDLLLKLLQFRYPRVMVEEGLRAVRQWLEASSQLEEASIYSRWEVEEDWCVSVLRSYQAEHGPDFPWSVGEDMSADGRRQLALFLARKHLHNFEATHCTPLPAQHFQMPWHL
As to the kind of experiment: co-IP; HEK293 cells transfected with S-tag-mABHD16A and 3×Flag-mIFITM1/2/3 for 24 h; S-tag-mABHD16A as the bait protein (anti-S-tag antibody, magnetic beads, 4°C, 4 h).

Test [1] deals with human IFITM1 (hIFITM1), Gal4-binding domain fusion (pGBKT7-hifitm1) (human) (UniProt P13164). As to the kind of experiment: two-hybrid; AH109 yeast; Gal4 BD-IFITM as bait (pGBKT7), AD-ABHD16A as prey (pGADT7); growth on SD-Ade/-His/-Leu/-Trp and blue colonies with X-alpha-Gal.
Test [2] has as its target human IFITM2 (hIFITM2), Gal4-binding domain fusion (pGBKT7-hifitm2) (human) (UniProt Q01629). Described as above.
In test [3] the target is human IFITM3 (hIFITM3), Gal4-binding domain fusion (pGBKT7-hifitm3) (human) (UniProt Q01628). The test is described as above.
A further test concerns the target 3×Flag-hIFITM1 (human) (UniProt P13164). As to the kind of experiment: co-IP; HEK293 cells cotransfected with 3×Flag-hIFITM1/2/3 and GFP-hABHD16A; anti-Flag as bait antibody for IP; magnetic beads, 4°C, 4 h.
In another test the target is 3×Flag-hIFITM2 (human) (UniProt Q01629). The test is described as above.
The next test concerns the target 3×Flag-hIFITM3 (human) (UniProt Q01628). The test is described as above.

No constants are given. Whether binding was seen depends on the method and setting. For part of these data: Binding seen in cells or lysates may run through a third protein. Some entries that bind do so weakly or less than the wild type. For part of these data: Tags and fused reporters may be left off the sequences shown.

Turning to mIFITM3-VC (from UniProt Q9CQW9 1-137), the binding entry with mABHD16A-VN (mouse) is recorded as “binds”.

Turning to “3×Flag-mIFITM3 (from UniProt Q9CQW9 1-137)”, the binding entry with S-tag-mABHD16A (mouse) was “binds”.

B1: human ABHD16A (hABHD16A), Gal4 activation domain fusion (pGADT7-habhd16a) (enzyme, UniProt O95870-1 1-558)
chain: MAKLLSCVLGPRLYKIYRERDSERAPASVPETPTAVTAPHSSSWDTYYQPRALEKHADSILALASVFWSISYYSSPFAFFYLYRKGYLSLSKVVPFSHYAGTLLLLLAGVACLRGIGRWTNPQYRQFITILEATHRNQSSENKRQLANYNFDFRSWPVDFHWEEPSSRKESRGGPSRRGVALLRPEPLHRGTADTLLNRVKKLPCQITSYLVAHTLGRRMLYPGSVYLLQKALMPVLLQGQARLVEECNGRRAKLLACDGNEIDTMFVDRRGTAEPQGQKLVICCEGNAGFYEVGCVSTPLEAGYSVLGWNHPGFAGSTGVPFPQNEANAMDVVVQFAIHRLGFQPQDIIIYAWSIGGFTATWAAMSYPDVSAMILDASFDDLVPLALKVMPDSWRGLVTRTVRQHLNLNNAEQLCRYQGPVLLIRRTKDEIITTTVPEDIMSNRGNDLLLKLLQHRYPRVMAEEGLRVVRQWLEASSQLEEASIYSRWEVEEDWCLSVLRSYQAEHGPDFPWSVGEDMSADGRRQLALFLARKHLHNFEATHCTPLPAQNFQMPWHL
For B1, the binding result is reported as “binds” in test [1], “no binding” in test [2] and “no binding” in test [3].

B2: GFP-hABHD16A (enzyme, UniProt O95870-1 1-558)
chain: MAKLLSCVLGPRLYKIYRERDSERAPASVPETPTAVTAPHSSSWDTYYQPRALEKHADSILALASVFWSISYYSSPFAFFYLYRKGYLSLSKVVPFSHYAGTLLLLLAGVACLRGIGRWTNPQYRQFITILEATHRNQSSENKRQLANYNFDFRSWPVDFHWEEPSSRKESRGGPSRRGVALLRPEPLHRGTADTLLNRVKKLPCQITSYLVAHTLGRRMLYPGSVYLLQKALMPVLLQGQARLVEECNGRRAKLLACDGNEIDTMFVDRRGTAEPQGQKLVICCEGNAGFYEVGCVSTPLEAGYSVLGWNHPGFAGSTGVPFPQNEANAMDVVVQFAIHRLGFQPQDIIIYAWSIGGFTATWAAMSYPDVSAMILDASFDDLVPLALKVMPDSWRGLVTRTVRQHLNLNNAEQLCRYQGPVLLIRRTKDEIITTTVPEDIMSNRGNDLLLKLLQHRYPRVMAEEGLRVVRQWLEASSQLEEASIYSRWEVEEDWCLSVLRSYQAEHGPDFPWSVGEDMSADGRRQLALFLARKHLHNFEATHCTPLPAQNFQMPWHL
Take B2: the binding result with 3×Flag-hIFITM1 (human) is on record as “binds”; in the test with 3×Flag-hIFITM2 (human) it was “no binding”; with 3×Flag-hIFITM3 (human), “no binding”.

B3: 3×Flag-mIFITM1 (protein, UniProt Q9D103 1-106)
chain: MPKEQQEVVVLGSPHISTSATATTINMPEISTPDHVVWSLFNTLFMNFCCLGFVAYAYSVKSRDRKMVGDTTGAQAFASTAKCLNISSLFFTILTAIVVIVVCAIR
For the molecule B3, the binding entry in the test with S-tag-mABHD16A (mouse) was “no binding”.

B4: mIFITM1-VC (protein, UniProt Q9D103 1-106)
chain: MPKEQQEVVVLGSPHISTSATATTINMPEISTPDHVVWSLFNTLFMNFCCLGFVAYAYSVKSRDRKMVGDTTGAQAFASTAKCLNISSLFFTILTAIVVIVVCAIR
For B4, in the test with mABHD16A-VN (mouse), the binding result is listed as “no binding”.

B5: 3×Flag-mIFITM2 (protein, UniProt Q99J93 1-144)
chain: MSHNSQAFLSTNAGLPPSYETIKEEYGVTELGEPSNSAVVRTTVINMPREVSVPDHVVWSLFNTLFFNACCLGFVAYAYSVKSRDRKMVGDVVGAQAYASTAKCLNISSLIFSILMVIICIIIFSTTSVVVFQSFAQRTPHSGF
As to B5, the binding entry with S-tag-mABHD16A (mouse) is given as “no binding”.

B6: mIFITM2-VC (protein, UniProt Q99J93 1-144)
chain: MSHNSQAFLSTNAGLPPSYETIKEEYGVTELGEPSNSAVVRTTVINMPREVSVPDHVVWSLFNTLFFNACCLGFVAYAYSVKSRDRKMVGDVVGAQAYASTAKCLNISSLIFSILMVIICIIIFSTTSVVVFQSFAQRTPHSGF
For B6, the binding entry with mABHD16A-VN (mouse) is recorded as “no binding”.
